# From the supplement of paper PMC8728848
# This is one part of the list.
# B1: L-Selectin (Mus musculus), P18337 (protein)
# chain: MVFPWRCEGTYWGSRNILKLWVWTLLCCDFLIHHGTHCWTYHYSEKPMNWENARKFCKQNYTDLVAIQNKREIEYLENTLPKSPYYYWIGIRKIGKMWTWVGTNKTLTKEAENWGAGEPNNKKSKEDCVEIYIKRERDSGKWNDDACHKRKAALCYTASCQPGSCNGRGECVETINNHTCICDAGYYGPQCQYVVQCEPLEAPELGTMDCIHPLGNFSFQSKCAFNCSEGRELLGTAETQCGASGNWSSPEPICQVVQCEPLEAPELGTMDCIHPLGNFSFQSKCAFNCSEGRELLGTAETQCGASGNWSSPEPICQETNRSFSKIKEGDYNPLFIPVAVMVTAFSGLAFLIWLARRLKKGKKSQERMDDPY
# How the values were obtained:
# Test in all cases: glycan array binding signal (z-score within array); higher = stronger binding
# Details in all cases: glycan notation: IUPAC condensed, linker removed
# [1] = target: Fuc(a1-2)[GalNAc(a1-3)]Gal(b1-4)GlcNAc
# In short: (§1)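 From the Consortium for Functional Glycomics database, 3228 arrays were curated, keeping only those whose protein sequence was available. Binding is given as a within-array Z-score averaged across arrays sharing a protein sequence and across linkers. Negative Z-scores can be read as non-binding.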
# [2] = target: Fuc(a1-2)[GalNAc(a1-3)]Gal(b1-4)[Fuc(a1-3)]GlcNAc
# In short: as §1
# [3] = target: Fuc(a1-2)[GalNAc(a1-4)]Gal(b1-4)GlcNAc
# In short: as §1
# [4] = target: Fuc(a1-2)[GalNAc(b1-3)]Gal
# In short: as §1
# [5] = target: Fuc(a1-3)GlcNAc
# In short: as §1
# [6] = target: Fuc(a1-3)[Gal(b1-4)]Glc6S
# In short: as §1
# [7] = target: Fuc(a1-3)[Gal(b1-4)]GlcNAc
# In short: as §1
# [8] = target: Fuc(a1-3)[Gal(b1-4)]GlcNAc(b1-2)Man(a1-3)[Fuc(a1-3)[Gal(b1-4)]GlcNAc(b1-2)Man(a1-6)]Man(b1-4)GlcNAc(b1-4)GlcNAc
# In short: as §1
# [9] = target: Fuc(a1-3)[Gal(b1-4)]GlcNAc(b1-2)Man(a1-6)[Gal(b1-4)GlcNAc(b1-2)Man(a1-3)]Man(b1-4)GlcNAc(b1-4)GlcNAc
# In short: as §1
# [10] = target: Fuc(a1-3)[Gal(b1-4)]GlcNAc(b1-3)Gal(b1-3)[Fuc(a1-4)]GlcNAc
# In short: as §1
# [11] = target: Fuc(a1-3)[Gal(b1-4)]GlcNAc(b1-4)Gal(b1-4)[Fuc(a1-3)]GlcNAc
# In short: as §1
# [12] = target: Fuc(a1-3)[Gal(b1-4)]GlcNAc(b1-4)Gal(b1-4)[Fuc(a1-3)]GlcNAc(b1-4)Gal(b1-4)[Fuc(a1-3)]GlcNAc
# In short: as §1
# [13] = target: Fuc(a1-3)[Gal(b1-4)]GlcNAc6S
# In short: as §1
# [14] = target: Fuc(a1-3)[Gal3S(b1-4)]Glc6S
# In short: as §1
# [15] = target: Fuc(a1-3)[Gal3S(b1-4)]GlcNAc
# In short: as §1
# [16] = target: Fuc(a1-3)[Gal3S(b1-4)]GlcNAc6S
# In short: as §1
# [17] = target: Fuc(a1-3)[GalNAc(b1-4)]GlcNAc
# In short: as §1
# [18] = target: Fuc(a1-4)GlcNAc
# In short: as §1
# [19] = target: Fuc(b1-3)GlcNAc
# In short: as §1
# [20] = target: Gal(a1-2)Gal
# In short: as §1
# [21] = target: Gal(a1-3)Gal
# In short: as §1
# [22] = target: Gal(a1-3)Gal(b1-3)GlcNAc
# In short: as §1
# [23] = target: Gal(a1-3)Gal(b1-4)Glc
# In short: as §1
# [24] = target: Gal(a1-3)Gal(b1-4)GlcNAc
# In short: as §1
# [25] = target: Gal(a1-3)Gal(b1-4)[Fuc(a1-3)]GlcNAc
# In short: as §1
# [26] = target: Gal(a1-3)GalNAc
# In short: as §1
# [27] = target: Gal(a1-3)[Gal(a1-4)]Gal(b1-4)GlcNAc
# In short: as §1
# [28] = target: Gal(a1-4)Gal(b1-4)Glc
# In short: as §1
# [29] = target: Gal(a1-4)Gal(b1-4)GlcNAc
# In short: as §1
# [30] = target: Gal(a1-4)GlcNAc
# In short: as §1
# [31] = target: Gal(a1-6)Glc
# In short: as §1
# [32] = target: Gal(b1-2)Gal
# In short: as §1
# [33] = target: Gal(b1-3)Gal
# In short: as §1
# [34] = target: Gal(b1-3)Gal(b1-4)GlcNAc
# In short: as §1
# [35] = target: Gal(b1-3)GalNAc
# In short: as §1
# [36] = target: Gal(b1-3)GalNAc(b1-3)Gal(a1-4)Gal(b1-4)Glc
# In short: as §1
# [37] = target: Gal(b1-3)GalNAc(b1-4)Gal(b1-4)Glc
# In short: as §1
binder,measurement,setting,value
B1,glycan array binding signal (z-score),[1],-0.16
same,glycan array binding signal (z-score),[2],-0.294
same,glycan array binding signal (z-score),[3],-0.599
same,glycan array binding signal (z-score),[4],-0.546
same,glycan array binding signal (z-score),[5],-0.232
same,glycan array binding signal (z-score),[6],-0.1
same,glycan array binding signal (z-score),[7],0.162
same,glycan array binding signal (z-score),[8],-0.434
same,glycan array binding signal (z-score),[9],-0.638
same,glycan array binding signal (z-score),[10],-0.272
same,glycan array binding signal (z-score),[11],-0.219
same,glycan array binding signal (z-score),[12],-0.04
same,glycan array binding signal (z-score),[13],0.212
same,glycan array binding signal (z-score),[14],3.99
same,glycan array binding signal (z-score),[15],0.044
same,glycan array binding signal (z-score),[16],4.9
same,glycan array binding signal (z-score),[17],-0.454
same,glycan array binding signal (z-score),[18],-0.193
same,glycan array binding signal (z-score),[19],-0.381
same,glycan array binding signal (z-score),[20],-0.049
same,glycan array binding signal (z-score),[21],0.253
same,glycan array binding signal (z-score),[22],-0.538
same,glycan array binding signal (z-score),[23],-0.265
same,glycan array binding signal (z-score),[24],-0.445
same,glycan array binding signal (z-score),[25],0.01
same,glycan array binding signal (z-score),[26],-0.386
same,glycan array binding signal (z-score),[27],-0.377
same,glycan array binding signal (z-score),[28],-0.052
same,glycan array binding signal (z-score),[29],0.031
same,glycan array binding signal (z-score),[30],0.318
same,glycan array binding signal (z-score),[31],0.345
same,glycan array binding signal (z-score),[32],0.706
same,glycan array binding signal (z-score),[33],-0.366
same,glycan array binding signal (z-score),[34],-0.351
same,glycan array binding signal (z-score),[35],-0.396
same,glycan array binding signal (z-score),[36],0.112
same,glycan array binding signal (z-score),[37],-0.089
